# Laboratory results taken from PubChem BioAssay AID1030 (National Center for Advancing Translational Sciences (NCATS), 2008).
# Among all 220,000 compounds or so, about 16,000 (7.3%) were called active. Inconclusive means that the source gave no clear call. Such entries were picked first, then a sample of the others. Calls follow the shape of the dose curve; as a rule, active = well fitted inhibition curve with a large enough effect (not every such curve was filed as active); inconclusive = small, poorly fitted or top-dose-only effect, or another doubt; inactive = no such curve, though single readings can be large or run the other way. Potencies of inconclusive entries are left out as doubtful fits.
# Molecular target: Aldehyde dehydrogenase 1A1 (Homo sapiens) (UniProt P00352)
# Sequence of UniProt P00352 (P00352 whole entry, looked up): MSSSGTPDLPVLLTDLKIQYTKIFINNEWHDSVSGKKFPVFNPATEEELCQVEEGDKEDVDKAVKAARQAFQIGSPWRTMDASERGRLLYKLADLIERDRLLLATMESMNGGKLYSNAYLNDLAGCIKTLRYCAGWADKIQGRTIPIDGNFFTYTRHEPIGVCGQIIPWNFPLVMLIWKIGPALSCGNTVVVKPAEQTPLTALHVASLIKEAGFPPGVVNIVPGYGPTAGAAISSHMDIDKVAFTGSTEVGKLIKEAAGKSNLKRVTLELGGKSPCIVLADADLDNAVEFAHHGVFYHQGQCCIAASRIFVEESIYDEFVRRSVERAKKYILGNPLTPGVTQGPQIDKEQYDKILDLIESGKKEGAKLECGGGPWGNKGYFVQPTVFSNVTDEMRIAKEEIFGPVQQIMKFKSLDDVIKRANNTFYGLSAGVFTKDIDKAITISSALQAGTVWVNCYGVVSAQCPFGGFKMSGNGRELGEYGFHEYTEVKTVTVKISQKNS
# Assay: qHTS Assay for Inhibitors of Aldehyde Dehydrogenase 1 (ALDH1A1);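 as to activity, negative = inhibition: plate controls were no enzyme wells and a reference inhibitor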
# Details: Purified ALDH1A1, NADH fluorescence, propionaldehyde substrate; series mostly up to 75.3 µM
# Potency is read from the fitted curve at half-maximal effect; tags tell the direction and shape of the fitted curve.
Structure (SMILES),Potency,"activity, negative = inhibition"
NC(=O)c1cccnc1Nc1cccc([N+](=O)[O-])c1,"inconclusive [inhibitor, single point]",–
[O-]/C(=C(\C(=S)NCc1ccc2c(c1)OCO2)[n+]1ccccc1)c1ccc(Cl)s1,active: 15.8 µM,–
COc1cccc(-c2cncnc2NCc2ccccc2)c1,"inconclusive [inhibitor, single point]",–
CC(C)N(CCc1ccncc1)C(=S)Nc1cccc(Cl)c1,"inconclusive [inhibitor, single point]",–
C/C(Cc1ccccc1)=N\NC(=O)CCCCCC(=O)N/N=C(\C)Cc1ccccc1,active: 11.2 µM,–
CCCn1c(SCN2C(=O)c3ccccc3C2=O)nc2cc(Cl)ccc2c1=O,inactive,–
COC(=O)c1sccc1NC(=O)c1ccc(C)s1,"inconclusive [inhibitor, single point]",–
Oc1ccc(COCc2ccccc2)c2cccnc12,"inconclusive [inhibitor, single point]",–
COC(=O)c1ccc2nc(C(F)(F)F)[nH]c2c1,"inconclusive [inhibitor, single point]",–
Cc1ccc(N=C2NC(=O)/C(=C/c3cn(C)c4ccccc34)S2)cc1C,inactive,–
O=c1c2nnn(-c3ccc(Cl)cc3)c2ncn1Cc1ccccn1,inactive,–
COC(=O)c1c(NC(=O)CSc2nnc(C)c(=O)[nH]2)sc(C)c1C,"inconclusive [inhibitor, single point]",–
CCn1cc(CNCc2cn(C)nc2-c2ccc(C3CCCCC3)cc2)cn1,"inconclusive [inhibitor, single point]",–
Cc1cc(S(=O)(=O)N2CCCC2)ccc1OCC(=O)N1CCC(C(N)=O)CC1,"inconclusive [inhibitor, single point]",–
CCn1c(SCC(=O)Nc2sc3c(c2C#N)CCC(C(C)(C)C)C3)nnc1-c1ccco1 (stereo not given),active: 39.8 µM,–
CCc1nc(SCC(=O)c2ccccc2)c2ccccc2n1,"inconclusive [inhibitor, single point]",–
Cc1ccc(SCC(=O)Nc2ccc3c(c2)OCCO3)cc1,inactive,–
CN(c1ccccc1)c1nc2ccsc2c(=O)s1,inactive,–
O=C(O)c1cc2cc(Cl)cc(Cl)c2oc1=O,inactive,–
COC(=O)C1=CN(Cc2ccc(OC)cc2)C=C(C(=O)OC)C1c1cccs1,"inconclusive [inhibitor, partial curve]",–
Cc1ccc(C2=Nc3ccc(Br)cc3C(c3ccncc3)=NN2)cc1,inactive,–
O=C(CSc1nccc(=O)[nH]1)N1CCCc2ccccc21,inactive,–
CCCCCCCCNC(=O)C(CCC(=O)OCc1ccccc1)NC(C)=O (stereo not given),"inconclusive [inhibitor, single point]",–
COc1ccc(CN2CCNC(=O)C2CC(=O)NCc2csc(C(C)C)n2)c(OC)c1 (stereo not given),"inconclusive [inhibitor, single point]",–
O=C(O)c1c(-c2ccccc2)c2oc3ccccc3c2[nH]c1=O,"inconclusive [inhibitor, single point]",–

Structure (SMILES),Potency,"activity, negative = inhibition"
Cc1ccc(-n2ncc3c(=O)n(-c4ccc(C)c(C)c4)c(-c4ccco4)nc32)cc1,active: 25.1 µM,–
N#CC1=C(N)Oc2c(ccc3cccnc23)C1c1cccnc1 (stereo not given),"inconclusive [inhibitor, single point]",–
O=S1(=O)N=C(N(CCO)/N=C/c2ccncc2)c2ccccc21,"inconclusive [inhibitor, partial curve, poor fit]",–
O=C(Nc1nncs1)c1c(F)c(F)c(F)c(F)c1F,active: 17.8 µM,–
S=c1[nH]nc(C23CC4CC(CC(C4)C2)C3)n1Cc1ccco1,"inconclusive [inhibitor, partial curve]",–
CC1(C)Oc2ccccc2OC1(O)c1ccc2ccccc2n1 (stereo not given),inactive,–
O=C(CSc1nnnn1-c1ccccc1)Nc1nsc(-c2ccc(Cl)cc2)n1,"inconclusive [inhibitor, single point]",–
c1csc(CNCCN2CCOCC2)c1,"inconclusive [inhibitor, single point]",–
CCOC(=O)CN1CCC(c2ccccc2)CC1,inactive,–
O=C(c1ccc(C(F)(F)F)cc1)N1CCC(=O)N(C(COCc2ccccc2)Cc2ccccc2)CC1 (stereo not given),inactive,–
O=C(COC(=O)C12CC3CC(CC(C3)C1)C2)NC12CC3CC(CC(C3)C1)C2,active: 14.1 µM,–
CCN(CC)C(=O)CSc1nc2ccc(NC(=O)CSc3nnc(N)s3)cc2s1,"inconclusive [inhibitor, single point]",–
COc1cc2oc(=O)cc(-c3ccc(-c4ccc(O)cc4)cc3)c2c(OC)c1OC,"inconclusive [inhibitor, single point]",–
COC(=O)CN1C(=O)N/C(=C/c2ccc(OC)cc2)C1=O,"inconclusive [inhibitor, single point]",–
CCC(=O)N1CCN(c2ccc(NC(=O)c3ccc([N+](=O)[O-])o3)cc2Cl)CC1,active: 14.1 µM,–
Cc1cc(C)c(C(=O)CSc2nnc(C)c(=O)[nH]2)cc1C,inactive,–
O=C(N/N=C/c1cn(Cc2ccccc2)c2ccccc12)c1cccnc1,active: 14.1 µM,–
N#Cc1nc(Cc2cccc3ccccc23)oc1NCCN1CCOCC1,inactive,–
CC(C)Cn1c(SCC(=O)NCc2ccc(Cl)cc2)nnc1-c1cccc(S(=O)(=O)N2CCOCC2)c1,inactive,–
CCOC(=O)C1CCCN(C(=O)c2cc3ncc(Br)cn3n2)C1 (stereo not given),inactive,–
O=C(CSc1nnnn1C1CCCCC1)NCc1ccc2c(c1)OCO2,active: 14.1 µM,–
C=CCNC(=S)N(CC)c1cccc2ccccc12,"inconclusive [inhibitor, single point]",–
CCOC(=O)c1[nH]c2ccc(F)cc2c1NC(=O)CN1CCN(C/C=C/c2ccccc2)CC1,"inconclusive [inhibitor, single point]",–
CC1CCCCN1C(=O)CSc1nc(-c2ccccc2)cn1N (stereo not given),"inconclusive [inhibitor, single point]",–
COc1ccccc1-c1nc2ccccc2nc1-c1ccccc1OC,"inconclusive [inhibitor, single point]",–

Structure (SMILES),Potency,"activity, negative = inhibition"
COc1ccccc1-c1ccc(SCC(=O)Nc2cc(C)on2)nn1,"inconclusive [inhibitor, single point]",–
COc1cccc(OC)c1CNC(=O)CCSCc1ccccc1F,"inconclusive [inhibitor, partial curve]",–
COc1ccccc1NC(=O)c1c(Nc2ccccc2F)sc(C(=O)Nc2cccc(Cl)c2)c1N,inactive,–
CCc1ccc(N2CCN(C(=O)N3CCOCC3)CC2)cc1,inactive,–
O=S(=O)(O)C(c1ccccc1)[C@@H](O)c1ccccc1 (stereo not given in full),–,inactive: 24.2% [at 13.5 µM]
Cc1ccc2nc(N3CCN(Cc4nnnn4Cc4ccccc4)CC3)c(C#N)cc2c1,"inconclusive [inhibitor, partial curve]",–
N#CCCn1c(O)c(N=NC(=O)CNC(=O)c2cccs2)c2ccccc21,"inconclusive [inhibitor, single point]",–
COc1ccc(OC)c(NC(=O)C2CCCN(S(=O)(=O)c3cccc4cccnc34)C2)c1 (stereo not given),inactive,–
Fc1ccc(C2=NN(c3ccccc3)C(c3ccco3)C2)cc1 (stereo not given),"inconclusive [inhibitor, partial curve]",–
N#C/C(=C\c1c(N(Cc2ccccc2)Cc2ccccc2)nc2ccccn2c1=O)C(N)=O,"inconclusive [inhibitor, partial curve]",–
CCCC1CCC(c2ccc(C(=O)NN)cc2)CC1 (stereo not given),"inconclusive [inhibitor, full curve]",–
COc1cc(OC)cc(-c2nc(-c3ccccc3OC)no2)c1,inactive,–
CC(C)OCCCNC(=O)C1CCC(CNS(=O)(=O)c2ccccc2)CC1 (stereo not given),active: 3.55 µM,–
O=C(CNC(=O)c1ccc(S(=O)(=O)N2CCCC2)cc1)N/N=C/c1c(Cl)cccc1Cl,"inconclusive [inhibitor, partial curve]",–
COc1ccc2c(Cl)cc(NC(=S)Nc3ccccc3)nc2c1,–,inactive: -6.19% [at 13.5 µM]
Fc1cccc(Nc2nc3ccccc3n3nnnc23)c1,"inconclusive [inhibitor, single point]",–
COc1ccc2c(C)cc(N3CCCCCC3)nc2c1,"inconclusive [inhibitor, partial curve]",–
COCCNC(=O)CN(C(=O)CCC(=O)Nc1ccccn1)c1ccccc1F,inactive,–
CC(C)Oc1cccc(C(=O)NC(=S)Nc2cccc(C(F)(F)F)c2)c1,active: 17.8 µM,–
CC1(C)CC(=O)C=C(Nc2ccc(F)cc2F)C1,"inconclusive [inhibitor, single point]",–
Cc1cccc(NC(=O)NCCN2C(=O)C3C4C=CC(C4)C3C2=O)c1 (stereo not given),"inconclusive [inhibitor, single point]",–
Cc1cccc(Nc2nc(N)c([N+](=O)[O-])c(N3CCC(C)CC3)n2)c1,"inconclusive [inhibitor, single point]",–
O=C(O)c1ccc(-c2ccccc2C(F)(F)F)s1,"inconclusive [inhibitor, single point]",–
O=C(NCC1CCCO1)C1CCN(C(=O)c2ccc(Br)cc2)CC1 (stereo not given),inactive,–
O=C(C/C=N/OCc1c(Cl)cccc1Cl)c1ccc(Cl)cc1,"inconclusive [inhibitor, single point]",–
